# From PubChem BioAssay AID504832 (National Center for Advancing Translational Sciences (NCATS), 2011)
# About 18,000 (5.8%) of roughly 310,000 compounds were called active. The inconclusive results got no clear call from the source; some entries with a clear call stand among them for comparison. The call rests on the fitted dose curve; in most records, active means well fitted inhibition curve with a large enough effect; inconclusive means small, poorly fitted or top-dose-only effect, or another doubt; inactive means no such curve, though single readings can be large or run the other way. Potencies of inconclusive entries are left out as doubtful fits.
# Assay: Primary qHTS for delayed death inhibitors of the malarial parasite plastid, 48 hour incubation
# Conditions: P. falciparum luciferase growth in erythrocytes; series mostly up to 28.7 µM; activity change, negative = inhibition: at the top concentration
# Procedure, shortened: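 Compounds are pin-transferred into medium, infected erythrocytes (2% hematocrit, 0.1% parasitemia final) are added, and plates sit one parasite generation at 37 C in 5% CO2. Detection reagent is then added and luminescence measured.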
# On the % scale 0 is the no-effect control and ±100 the full control effect; potency means the concentration at half of the fitted maximal effect; tags describe the fitted curve by direction and shape.
SMILES,"activity change, negative = inhibition",Potency
Fc1ccc(C(c2nnnn2C2CCCC2)N2CCN(Cc3ccncc3)CC2)cc1 (stereo not given),inactive: -13.5%,–
COc1ccc(C(=O)N2CCCC(Nc3ccc(C)c(C)c3)C2)cc1 (stereo not given),inactive: 10.4%,–
CC(C)(C)NC(=O)CON=C1c2ccccc2-c2ccccc21,inactive: -13%,–
CC(=O)Nc1ccc(S(=O)(=O)C(C#N)c2nc3ccccc3nc2NCCO)cc1 (stereo not given),–,"inconclusive [inhibitor, partial curve, poor fit]"
Cc1nc(SCC(=O)NCC(F)(F)F)c2c(-c3cccs3)csc2n1,inactive: -4.47%,–
O=C(NC(=S)Nc1ccccc1N1CCCC1)c1ccc([N+](=O)[O-])cc1,inactive: 22.5%,–
CCOC(=O)C1CCN(c2c(NCCN(CC)c3ccccc3)c(=O)c2=O)CC1,–,"inconclusive [inhibitor, partial curve]"
COc1ccc(CCNC(=O)CN2C(=O)CCSc3ccccc32)c(OC)c1,–,"inconclusive [inhibitor, partial curve, poor fit]"
Cc1nc2cc(-c3ccc(Cl)cc3)nn2c(NCCN(C)C)c1C,–,"inconclusive [inhibitor, single point]"
CCN(CC)C(=O)c1cc(Cl)ccc1NC(=O)c1ccco1,inactive: 5.3%,–
CCOc1cc(N2CCOCC2)c(OCC)cc1NC(=O)COc1ccccc1[N+](=O)[O-],–,"inconclusive [inhibitor, single point]"
COc1ccc(S(=O)(=O)N2CCCCC2)cc1NC(=O)c1ccc(CS(C)(=O)=O)cc1,–,"inconclusive [inhibitor, partial curve, poor fit]"
C=CCOC(=O)CCC(=O)Nc1cc(OC)nc(OC)n1,–,"inconclusive [inhibitor, single point]"
CCOc1ccc(N2C(=O)c3cccnc3C2Nc2ccc(C)cc2)cc1 (stereo not given),–,active: 9.28 µM
O=C(c1ccc2c(c1)OCO2)N1CCN(c2ccc(F)cc2)CC1,inactive: 23.8%,–
Cn1c(N)nc2nc(CCc3ccccc3)c(=O)[nH]c2c1=O,inactive: -1.35%,–
O=C(N/C(=C\c1ccccc1Cl)C(=O)N1CCOCC1)c1ccc([N+](=O)[O-])cc1,–,"inconclusive [inhibitor, single point]"
CCCN(CC(=O)Nc1ccccc1C)C(=O)C1CC(=O)N(Cc2ccccc2)C1 (stereo not given),inactive: 0.209%,–
COc1cc2nc(N(CCCN(C)C)C(=O)c3ccc(C(=O)c4ccccc4)cc3)sc2cc1OC,–,"inconclusive [inhibitor, single point]"
CCCN(CCC)C1=CC(=[N+]2CCCC2)CC(C)(C)C1,–,active: 1.47 µM
COc1ccccc1-c1nnc(SCC(=O)NC2CCCCC2)n1C,inactive: 13.6%,–
CCOc1ccccc1/C=C/c1nc2ccccc2[nH]c1=O,inactive: 13.4%,–
COc1ccc(C(=O)Nc2ccc(NC(=O)c3ccccc3F)cn2)cc1,inactive: 3.9%,–
COc1cc([N+](=O)[O-])ccc1NC(=O)NCC1CCN(Cc2ccc(Cl)cc2)CC1,–,"inconclusive [inhibitor, single point]"
Oc1cccc(C2c3[nH]c4ccccc4c3CCN2Cc2ccoc2)c1 (stereo not given),–,"inconclusive [inhibitor, single point]"

SMILES,"activity change, negative = inhibition",Potency
COc1cccc(/C=C/C(=O)OCC(=O)Nc2cc(S(=O)(=O)N3CCOCC3)ccc2C)c1,inactive: -6.04%,–
Cc1ccccc1NCN1C(=O)C2CCC(C)(C1=O)C2(C)C (stereo not given),inactive: 20%,–
CC(=O)c1cccc(OC(=O)c2cc(S(=O)(=O)N3CCOCC3)ccc2N2CCCC2)c1,–,"inconclusive [inhibitor, single point]"
Cc1ccc(S(=O)(=O)c2cc3ccccc3nc2N)cc1,–,"inconclusive [inhibitor, partial curve, poor fit]"
OCC(CO)(CO)N=Cc1c(O)ccc2ccccc12,inactive: -3.73%,–
O=C(OCn1nnc2ccccc2c1=O)c1cccnc1,–,"inconclusive [inhibitor, partial curve]"
CCn1c(/C=C\c2ccccc2C)nc2ccccc2c1=O,–,"inconclusive [inhibitor, single point]"
Cc1cc2c(ncn2C)c(NS(=O)(=O)c2cc(Cl)ccc2Cl)c1C,–,"inconclusive [inhibitor, single point]"
CC(Sc1nnnn1C)C(=O)Nc1nc(-c2ccc(F)c(F)c2)cs1 (stereo not given),–,"inconclusive [inhibitor, single point]"
CN1CCc2cc(Cl)c(O)cc2[C@H]2c3ccccc3CC[C@@H]21,–,active: 12 µM
CN(C)c1cc[n+](CC(=O)N2CCCc3ccccc32)cc1,–,active: 5.22 µM
CCn1ccnc1CN1CCCC(C(=O)c2ccc(SC)cc2)C1 (stereo not given),–,"inconclusive [inhibitor, single point]"
O=C(Nc1nc2c(s1)CCc1ccccc1-2)c1ccco1,–,"inconclusive [inhibitor, single point]"
COc1ccccc1CN1CC(C(=O)NCc2cccnc2)CC1=O (stereo not given),inactive: 15.1%,–
C#CCNC(=O)C1=C[C@@H](C2CC2)[C@H](CCCO)[C@@H](OCC)O1,inactive: -9.02%,–
Cc1ccc(-c2nnc(SCC(=O)CC(=O)Nc3ccccc3)n2C)cc1,–,"inconclusive [inhibitor, single point]"
COc1nc(NC23CC4CC(CC(C4)C2)C3)nc(OC)n1,–,"inconclusive [inhibitor, partial curve, poor fit]"
O=C(C[n+]1cc(-c2ccc(Cl)cc2)n2c1CCC2)Nc1nc(-c2ccc(F)cc2)cs1,inactive: -2.58%,–
COc1cccc(CN2CCN(Cc3cc4ccccc4[nH]3)CC2CCO)c1 (stereo not given),–,"inconclusive [inhibitor, single point]"
O=C(O)CCC(=O)N1CCc2cc(S(=O)(=O)N(CCc3ccccc3)Cc3ccccc3)ccc21,–,"inconclusive [inhibitor, partial curve]"
N=c1sccn1CC(=O)Nc1cc(S(=O)(=O)N2CCCC2)ccc1Cl,inactive: 7.47%,–
CCCCCn1c(N)c(-c2nc3ccccc3s2)c2c([N+](=O)[O-])nn(C)c(=O)c21,–,"inconclusive [inhibitor, single point]"
COc1ccc(CCn2c(NN=C3CCCCC3)nc3c2c(=O)[nH]c(=O)n3C)cc1,–,"inconclusive [inhibitor, single point]"
CCOCCn1c(CN(Cc2ccccc2)Cc2ccccc2)nc2c1c(=O)[nH]c(=O)n2C,–,"inconclusive [inhibitor, partial curve, poor fit]"
CC[C@@H](C)C(C(=O)N1CCN(C(=O)OC(C)(C)C)CC1)n1cc(-c2cn([C@@H](C)C(=O)N3CCN(C(=O)OC(C)(C)C)CC3)nn2)nn1 (stereo not given in full),–,"inconclusive [inhibitor, partial curve]"

SMILES,"activity change, negative = inhibition",Potency
Cc1ccc(NC(=O)C2Oc3ccccc3OC2C)cc1 (stereo not given),inactive: 3.32%,–
COc1ccccc1C(=O)ON=C1c2ccccc2-c2ccccc21,inactive: 3.49%,–
CC(C)(C)N(C(=O)Cn1nnc(-c2ccc(F)cc2)n1)C(C(=O)NC1CCCC1)c1ccncc1 (stereo not given),–,"inconclusive [inhibitor, partial curve, poor fit]"
CCOC(=O)N/N=C(/C)c1ccc([N+](=O)[O-])o1,–,"inconclusive [inhibitor, single point]"
O=C(CSc1nnc(-c2ccccc2)c(-c2ccccc2)n1)N1CCc2ccccc21,–,"inconclusive [inhibitor, single point]"
CCCN(CCC)CC(O)CN(c1cc([N+](=O)[O-])ccc1OC)S(=O)(=O)c1ccccc1 (stereo not given),–,"inconclusive [inhibitor, full curve, poor fit]"
COc1nnc(OC)c2ccccc12,inactive: -6.43%,–
CN(C)c1ccc(/C=c2\sc3nc(-c4ccccc4)nn3c2=O)cc1,inactive: 0.054%,–
O=C(NCc1ccco1)c1cccc(Nc2nc3ccc(Br)cc3[nH]2)c1,–,active: 11.7 µM
COc1ccc(CC(NC(C)=O)C(=O)NC2CCN(c3nc(C)cc(C)c3C#N)CC2)c(OC)c1 (stereo not given),inactive: -23.1%,–
CCC(C(=O)NC1CCCC1)N(C(=O)c1snc(C(N)=O)c1N)c1ccc(C)cc1C (stereo not given),–,"inconclusive [inhibitor, single point]"
CN(CC(=O)N1CCCC1)S(=O)(=O)c1cccc(Cl)c1,–,"inconclusive [inhibitor, single point]"
O=C(Cn1nnc(-c2ccccc2Cl)n1)N1CCN(S(=O)(=O)c2ccc(Cl)cc2)CC1,inactive: -9.33%,–
CC(C)=C1C2CCC1C(C(=O)Nc1sc(C)c(-c3ccc(C(C)C)cc3)c1C(N)=O)C2C(=O)O (stereo not given),–,"inconclusive [inhibitor, partial curve]"
O=C(CSc1nc(-c2ccco2)cc(C(F)(F)F)n1)NN1CCOCC1,inactive: 2.3%,–
CN(CC(=O)Nc1ccc2c(c1)CCC2)CC(=O)Nc1ccccc1Br,inactive: 4.78%,–
COc1ccc(CC(=O)NNC(=O)COc2ccc3ccccc3c2)cc1,inactive: 20%,–
Nc1nnnn1CC(=O)N/N=C/c1cc([N+](=O)[O-])ccc1O,–,"inconclusive [inhibitor, single point]"
Cc1cccc(NC(=O)/C(C#N)=C/c2ccccc2O)n1,inactive: 2.22%,–
NCCNCCNCCN,–,inactive
COC(=O)c1[nH]c2cc(OC)ccc2c1N,inactive: 33.9%,–
Cc1ccc(Nc2nc3nonc3nc2N(C)C)cc1,–,"inconclusive [inhibitor, partial curve, poor fit]"
CCc1ccc(C(=O)Nc2nc3ccccc3[nH]2)cc1,inactive: -59.7%,–
C/C(=N\NC(=O)c1cccs1)c1c(O)cc(C)oc1=O,inactive: 24.8%,–
CN1CCN(CCCNC(=O)c2cc3c(=O)oc4ccccc4c3s2)CC1,–,"inconclusive [inhibitor, single point]"
